Whole data set: some 33,000 sequences, median “E-score (-0.5 to 0.5)” near -0.056, cut for the highest 2% near 0.38. This is one part of the list.
Target: Stb4 (UniProt P50104)
Assay: PBM E-score (8-mer binding enrichment) (E-score (-0.5 to 0.5)); higher = stronger / more preferred TF binding; most listed sequences are background and not binding sites
Settings: protein concentration: 200 nM; construct: GST-DNA-binding domain
How it was run: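 Using PURExpress in vitro transcription/translation, GST-tagged yeast transcription factors were made in full-length or DNA-binding-domain form. These were applied at about 100-200 nM to double-stranded universal all-10-mer Agilent arrays, and bound protein was detected with fluorescent anti-GST. Scans were normalised with masliner before the Universal PBM Analysis Suite assigned E-scores to ungapped eight-base words pooled with their reverse complements.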

Row | Sequence | PBM E-score
1 | CCGTGTGA | 0.173
2 | AATTAAGG | -0.148
3 | CATTCGAG | -0.168
4 | TCTCGGAA | 0.479
5 | AGCCAAAG | -0.147
6 | CAGGGAAC | -0.188
7 | AATTCAGT | -0.18
8 | AATACGCT | -0.0749
9 | AAGAACCA | -0.108
10 | AAATGTGC | 0.163
11 | GGCTCCGA | 0.313
12 | TGCGACCA | -0.0687
13 | CACATAAG | -0.24
14 | GCAAAGGC | -0.226
15 | ATTAGAAA | 0.127
16 | CACCGGGA | 0.244
17 | AGTATACT | -0.301
18 | AGCCAACT | -0.23
19 | GAGCGTAA | -0.176
20 | ACGCCGAT | 0.131
21 | GGAAGACC | 0.208
22 | AACTGATT | -0.0941
23 | AGCGTGCG | 0.0759
24 | CCATATAA | -0.14
25 | CCGCCCTA | -0.0277

Row | Sequence | PBM E-score
26 | AATACGAA | -0.0149
27 | CATTTAGC | -0.16
28 | GTAGAAGA | -0.105
29 | CACAACCC | -0.0519
30 | GAAGAGAC | 0.129
31 | AACAGCTA | -0.18
32 | CTCCGTCA | 0.0562
33 | AGTGGGTC | -0.00808
34 | AGCGCAAG | -0.184
35 | CCTGGCCC | -0.0666
36 | CTCAATCA | -0.0792
37 | AATCTGCT | -0.0501
38 | AGGTTGCC | -0.0751
39 | AGGCACCT | 0.00309
40 | ACGTAACG | -0.107
41 | CTAAGTAA | -0.152
42 | CCGTTACG | 0.194
43 | GACGAGTC | -0.165
44 | AGCGTAAC | -0.0658
45 | AAAGTTGG | -0.218
46 | AAAATGAT | 0.137
47 | TAATGATA | -0.0015
48 | GGTGCCAC | -0.108
49 | CGCTGCGA | -0.0754
50 | CTTTCCCA | -0.053

Row | Sequence | PBM E-score
51 | ACGCTCTA | -0.118
52 | AATCTCCC | 0.0431
53 | AAGTTCAA | 0.209
54 | TCAACTCA | 0.0356
55 | GAGCCAAA | -0.0033
56 | AATCAGGT | -0.0174
57 | AGCTACCA | -0.179
58 | CTATAAAG | -0.0367
59 | GATTTGCC | 0.18
60 | GACCGTGA | -0.0731
61 | CACCCATC | -0.0515
62 | AAAGCAAA | -0.0785
63 | AAACAGGT | -0.0919
64 | CAATTAAG | -0.008
65 | AGCTGTTC | -0.0888
66 | CTGTGGCC | -0.115
67 | GCCAGGAC | -0.295
68 | TAGGGACA | 0.0391
69 | GGAAGAAA | 0.187
70 | AAGAAGGG | -0.176
71 | CCCTTTGA | -0.226
72 | AAACCTAG | -0.157
73 | GCAGCCCA | -0.251
74 | GCCGCACA | 0.0371
75 | ATATAACC | 0.0269

Row | Sequence | PBM E-score
76 | AGTTTGGA | -0.116
77 | AAAATATA | 0.0979
78 | ATGCAAGG | -0.236
79 | ATGAGTAG | 0.0524
80 | ACGTTGTC | -0.13
81 | CGAGACAG | -0.00345
82 | GACCTATC | 0.0106
83 | CATGAGCG | -0.0288
84 | GCCCTAGA | -0.263
85 | AATAAACT | -0.0135
86 | GAAAGTTA | 0.0653
87 | AAGCACGC | -0.105
88 | AGTCGCAG | -0.0983
89 | TCCTACAA | 0.0307
90 | GGTTGGAA | 0.12
91 | ACCAGGCT | -0.285
92 | GCCCCGTA | -0.0452
93 | GGCCACTA | -0.182
94 | CAACCCAA | -0.264
95 | TGCCCACA | -0.147
96 | ATGCACGC | 0.135
97 | CGTACAAC | -0.103
98 | CCCCCCGA | 0.28
99 | ATGGTCCG | 0.251
100 | GTCCTGCA | -0.21

Row | Sequence | PBM E-score
101 | ACATTTCG | 0.0128
102 | CAAGAAAC | 0.0767
103 | ACATCAGT | -0.094
104 | ATGCGGGC | -0.1
105 | CGGTGTTA | 0.26
106 | TGAATTAA | 0.106
107 | AGATTGGG | -0.139
108 | CCTTCACC | -0.0452
109 | ACGGGGTG | -0.0618
110 | CAACTATA | -0.084
111 | ACCGTCCA | 0.0203
112 | AGGAATTC | -0.0705
113 | AAAACGCT | -0.0857
114 | CACCGCGA | -0.209
115 | ATGCAGCA | -0.082
116 | CAACGGTG | -0.112
117 | AAAATTTC | 0.105
118 | ACGTCAAT | -0.176
119 | ACTAGGTC | -0.065
120 | GATCGCCC | -0.0185
121 | TCTTATCA | -0.101
122 | AATGTTTA | -0.204
123 | CGATTTAC | 0.127
124 | ATTACCCA | -0.0268
125 | ACGAGCCG | 0.292

Row | Sequence | PBM E-score
126 | CGACGGCC | -0.0543
127 | ACAAGCTA | -0.195
128 | CGCCCGAA | 0.293
129 | AAACTCAG | -0.165
130 | CCACCATC | -0.024
131 | ATTCCATA | -0.0219
132 | AGGAGCCC | -0.00774
133 | AAGTCGAC | 0.0521
134 | AACGGTCG | 0.107
135 | CCTCGGCG | 0.411
136 | TGGGCTAA | -0.0689
137 | AAAAAAAG | 0.082
138 | AAAACACA | -0.12
139 | CCTCAGTC | -0.127
140 | CTTCTTAA | -0.0974
141 | AAATGCTC | -0.00443
142 | AGGGCGCG | -0.0943
143 | AGCAATTC | 0.0293
144 | GATGAAAA | 0.05
145 | CTTCAACA | -0.216
146 | ATCAAAGC | 0.155
147 | TAGCTACA | -0.0643
148 | TAGCGAAA | -0.141
149 | ACAGCTGT | -0.148
150 | TCGGCCGA | 0.419

Row | Sequence | PBM E-score
151 | GGAGAAAC | 0.0868
152 | TCACCGGA | 0.306
153 | CCCCACAC | -0.175
154 | CCCCTTTC | -0.0961
155 | CGCGGCGC | 0.106
156 | ACATAGAT | -0.0527
157 | CAAGAGAC | -0.228
158 | ATCGCTGA | 0.0763
159 | ATGTGATG | -0.204
160 | ACACTGCG | 0.00398
161 | CAAACGGA | 0.237
162 | AAGGAGGG | 0.00782
163 | CTACCTCC | -0.0117
164 | AAAGTGCA | -0.0751
165 | AAAAAGGC | -0.129
166 | ACCCATAC | -0.159
167 | ACTGCCCT | -0.0934
168 | AGCCCAGG | -0.295
169 | GACTTGTA | -0.0104
170 | TCCAGACA | -0.0587
171 | CCTCCTCA | -0.164
172 | AACTGAGT | 0.00065

Source: the supplement of paper PMC3334620
